Reference: the supplement of paper PMC11417369
The list shows a part of the results.

Tested on: PfSIP2 AP2 domain 1 (GST-tagged)
Assay: gcPBM binding intensity (ln(normalized median fluorescence intensity)); higher = stronger DNA binding
Method in brief: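 An Agilent 4 × 180k array carrying primer-extended double-stranded 36-bp intergenic genomic probes and negative controls received GST-tagged P. falciparum DNA-binding domains expressed in E. coli, about 25 μg on average, for 1 h. The binding buffer contained 1× PBS, 1% milk, 0.2 mg/ml BSA, 0.5% salmon testes DNA and 0.03% Triton X-100. Binding intensity is the top Masliner-normalised natural-log median intensity across replicate spots of either probe orientation, read after Alexa488 anti-GST antibody staining and a 488 nm scan.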

| Sequence | gcPBM binding intensity (ln) |
| --- | --- |
| AAAATATATTAAGGCACACACATACATATATATATA [CACACA_site3723] | 9.08 |
| GAGTTAATATTTAAAAGTACAAGATGAATGTAAAAA [XGTACX_site5810] | 7.01 |
| TTAAAAATATATGAATGTACATATATTTATATATAT [XGTACX_site77] | 7.34 |
| TACTTACCAAAATACACACACACACCCAATATATAA [CACACA_site1871] | 7.27 |
| TTTTTTTTATTAGTGTGTACGCATTTATTTATACAT [XGTACX_site1599] | 7.86 |
| TTTAAATTATGAAATTGTACATATAAAAATATTTTA [XGTACX_site4796] | 6.89 |
| TATATATTATTTAAAACACACAAAAAAAAAAATTAT [CACACA_site89] | 6.93 |
| TAAAATATAATAAAATGTACACGCATGCAATAGAAT [XGTACX_site7434] | 7.28 |
| GCTTCTTAGTATACTTTATAAAATATATATTAAATA [XGTACX_negctrl_site57] | 7.39 |
| ATATCGGGTGCATTAACACACATTTATTTGAATAAA [CACACA_site2350] | 11.7 |
| TTTATAAATATATATACACACACATATATATTATAT [CACACA_site8099] | 7.09 |
| ATATATCATAATAGAGGTACACATATTATATATATA [XGTACX_site782] | 7.91 |
| ATATTAAATATAATTTGTACGCATTTTTTTTTTTTT [XGTACX_site1910] | 7.62 |
| AATTATAATTAATAGAGTACTGAATATATATATATA [XGTACX_site8683] | 9.1 |
| TTCCCTTTTTTTATTTGTACTTATCTTTTAAATAAT [XGTACX_site2497] | 7.23 |
| AGCATTTTTCATTTTGCACACATGTTTTATGTGTAT [CACACA_site3454] | 7.11 |
| AAAAAAAAAAAAAAGACACACATATATATATATATA [CACACA_site633] | 9.11 |
| AATATTACAAAATATTGTCCGTACAAATTTTTAATA [XGTACX_site8129] | 6.86 |
| GATGATAAAATATGTACACACAGTTTATACATTTTG [CACACA_site4055] | 6.88 |

| Sequence | gcPBM binding intensity (ln) |
| --- | --- |
| ATATACATATATATGGGTACATATATTAATATATAT [XGTACX_site8358] | 7.2 |
| ATTTTGAAAAATAAAAGTACATATAATATATCTACA [XGTACX_site7185] | 6.93 |
| TTAACATATTATAAGTGTACATATTTATAAACAAGA [XGTACX_site8806] | 7.37 |
| TCTGTTAATATTTATACACACATATTTATTTATATA [CACACA_site6658] | 7.09 |
| TTTAGATATATGGTAGTGCATAATAAAAATATAGCC [GTGCAC_site9449] | 8.94 |
| CACTCCATATTATACACACACACAAATGAAAAAAAT [CACACA_site3019] | 7.41 |
| AATTAGATTTACTGAAGTACTTAATTTATTTTATTA [XGTACX_site3407] | 6.82 |
| AATAATCTATATTGTACACACAAAATGGGAAAAAAA [CACACA_site6969] | 7.17 |
| AGGTACTTTTTTAAAACACACATATAACATATACAC [CACACA_site6629] | 7.3 |
| ACCCCCAATACGGAAACACACAAGTTATTTTATCAT [CACACA_site8874] | 7.42 |
| TTAAATGAAAAATGGGGTACATATATACAAATATAT [XGTACX_site5931] | 7.37 |
| TGTTTATTTTTAAAAAGTACATATATAAAAAATATC [XGTACX_site4902] | 7.22 |
| ATAATTTGGAAACACACACACACACCCACATATATA [CACACA_site2286] | 7.12 |
| TGATTATACGCACGCGCACACACAACCAAAAAAAAA [CACACA_site3537] | 7.65 |
| AAAAAAAAATACTACTGTACTTTTTTTGGACATCTA [XGTACX_site1096] | 6.75 |
| AAAAAAGGAAAAGATACACACCGTAAATTAAAATTT [CACACA_site5908] | 6.54 |
| ATATATTTATATATTACACACAATATTGTACAGATA [CACACA_site8215] | 7.18 |
| GAAGGAATATACAATTGTACTTGGCAAAAAAAAAAA [XGTACX_site1884] | 7.05 |
| AAATACTTGTCATATTGTACATGTTTGTGATATATA [XGTACX_site3185] | 6.93 |

| Sequence | gcPBM binding intensity (ln) |
| --- | --- |
| GTTAAGAATATATAATGTACTTATTTTAATATAGTA [XGTACX_site6088] | 7.07 |
| CTCTGTTGTCTTAGTTGTACAATAGAAAAAAATAAT [XGTACX_site7043] | 7.77 |
| TCTTTTAAACAGTACACACACACATCTATATTTATA [CACACA_site6559] | 7.34 |
| ATATATATATATATATGTACATATTGTATTAATTAT [XGTACX_site1919] | 9.29 |
| TTTTTTACTTTTGAGACATTTCATATTTTTATTCAC [GTGCAC_negctrl_site730] | 6.91 |
| TACAGGAATATTTTTACACACTAAAAATTATAAAAT [CACACA_site1649] | 6.88 |
| TGATTGAGTAAAATGGGTACATATACACTATTACAT [XGTACX_site5232] | 6.84 |
| ATATTGTATTTATGTACACACATTTTTGGAATATGA [CACACA_site4861] | 7.09 |
| TTTTTTCTCTGTGGCTGTACTTTGAAGATATTTTAT [XGTACX_site8243] | 7.18 |
| AAAGGTTCACATTATATAGTTATGTAATATATATGT [CACACA_negctrl_site542] | 6.84 |
| TAAAATATATATATGTGTACATAACATATAATTTTT [XGTACX_site1725] | 6.89 |
| TTATTTAGTATATTATGTACATACAATGCCTGGGAA [XGTACX_site4578] | 7.33 |
| ATATGTTACAGACACACACACACATAAAAAAACAAA [CACACA_site3248] | 7.21 |
| AGTATAAAAATATATTTACACACTATATATATCGAA [CACACA_site8494] | 7 |
| TATTGTTGTTCATGTACACACTATAATAAAAGCAAT [CACACA_site6148] | 7.25 |
| TTTTCATATTATAGTGCACACAAAAATATATATATG [CACACA_site8929] | 10.8 |
| GTACATAGATTGTACATACACACCTATATAAATATC [CACACA_site3225] | 7.09 |
| AATATATGGTTCCATGATATTAAATTCAATTTAATG [CACACA_negctrl_site605] | 6.8 |
| TTTTTTTTGTTCTATACAATTATAAAAATAAAATAT [XGTACX_negctrl_site53] | 6.84 |
